Assay results: PubChem BioAssay AID2147 (National Center for Advancing Translational Sciences (NCATS), 2009)
About 3,600 (1.6%) of roughly 230,000 compounds were called active. Inconclusive means that the source gave no clear call. Such entries were picked first, then a sample of the others. Calls follow the shape of the dose curve; as a rule, active = well fitted inhibition curve with a large enough effect (not every such curve was filed as active); inconclusive = small, poorly fitted or top-dose-only effect, or another doubt; inactive = no such curve, though single readings can be large or run the other way. Potencies of inconclusive entries are doubtful fits and often do not repeat.

molecular target: Lysine-specific demethylase 4E (Homo sapiens) (UniProt B2RXH2); assay: qHTS Assay for Inhibitors of Human Jumonji Domain Containing 2E (JMJD2E); details: JMJD2E catalytic domain, FDH-coupled NADH fluorescence (FDH is formaldehyde dehydrogenase); series mostly up to 57.1 µM
Also: nearly all actives have a fitted effect of over 50% in size.
Potency is read from the fitted curve at half-maximal effect; tags tell the direction and shape of the fitted curve.

UniProt B2RXH2, sequence (B2RXH2 whole entry, looked up, the tested form may be a part): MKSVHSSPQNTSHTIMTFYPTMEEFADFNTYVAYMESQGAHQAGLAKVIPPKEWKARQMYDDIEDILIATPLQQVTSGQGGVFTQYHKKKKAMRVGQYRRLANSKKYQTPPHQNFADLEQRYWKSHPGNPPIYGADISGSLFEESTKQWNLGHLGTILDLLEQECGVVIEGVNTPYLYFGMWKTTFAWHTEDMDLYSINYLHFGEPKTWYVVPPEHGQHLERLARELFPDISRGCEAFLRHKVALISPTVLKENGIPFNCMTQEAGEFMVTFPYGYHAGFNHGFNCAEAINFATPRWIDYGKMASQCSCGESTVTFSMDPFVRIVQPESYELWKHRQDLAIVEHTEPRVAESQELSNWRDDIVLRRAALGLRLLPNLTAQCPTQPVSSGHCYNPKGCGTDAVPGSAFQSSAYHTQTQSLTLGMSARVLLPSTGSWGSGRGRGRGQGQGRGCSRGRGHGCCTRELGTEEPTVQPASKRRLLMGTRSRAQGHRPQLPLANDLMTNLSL

Compound | Potency
COc1ccccc1NC(=O)CSc1c2c(nc3ccccc13)CCC2 | inactive
CCCn1c(C)nc2c(NCCCCN(CC)CC)nc(C)nc21 | inconclusive: 28.2 µM [inhibitor, single point]
Cc1nn(-c2ccccc2)c2sc(C(=O)N(CC(=O)NC(C)(C)C)Cc3ccco3)cc12 | inconclusive: 35.5 µM [inhibitor, single point]
O=Cc1cn(-c2ccccc2)nc1-c1cc2cc(O)ccc2oc1=O | inconclusive: 2.82 µM [inhibitor, full curve]
CC(=O)C1=C(O)C(=O)N(CCCn2ccnc2)C1c1ccc(C)cc1 (centres undefined) | inconclusive: 39.8 µM [inhibitor, single point]
CSc1ccc(-c2nc(CSCC(=O)NCCCN3CCOCC3)c(C)o2)cc1 | inconclusive: 35.5 µM [inhibitor, single point]
O=C(C(Cc1ccccc1)n1cccc1)N1CCN(c2cccc(Cl)c2)CC1 (centres undefined) | inactive
O=c1c2c3nc4ccccc4nc3n(-c3ccc4c(c3)OCCO4)c2ncn1C1CCCC1 | inconclusive: 39.8 µM [inhibitor, single point]
COc1c(NC(C)=O)c2ccccc2c2ccccc12 | inconclusive: 39.8 µM [inhibitor, single point]
O=C(/C=C/c1cccc(Cl)c1)Nc1ncccn1 | inactive
NS(=O)(=O)c1ccc(CNC(=O)/C=C/c2ccco2)cc1 | inactive
Cc1ccc(C)c2c1c1ccccc1n2C | inconclusive: 28.2 µM [inhibitor, single point]
CC(=O)OCC1=C(C(=O)O)N2C(=O)C(NC(=O)Cc3cccs3)C2SC1 (centres undefined) | inconclusive: 39.8 µM [inhibitor, single point]
Cc1cc(OCc2nn[nH]n2)c2c(C)c(CC(=O)O)c(=O)oc2c1 | inconclusive: 28.2 µM [inhibitor, partial curve]
CCOc1cc(C(N)=O)cc(Cl)c1OCc1ccccc1 | inconclusive: 31.6 µM [inhibitor, partial curve]
O=S1(=O)CCN2C=C(Cl)C=C(Cl)C2=N1 | inconclusive: 31.6 µM [inhibitor, partial curve]
CC1(C)CC(=O)C(N=Nc2ccc(S(=O)(=O)N3CCOCC3)cc2)=C(O)C1 | inconclusive: 31.6 µM [inhibitor, single point]
O=C(c1ccc(N2CCC3(CC2)OCCO3)c([N+](=O)[O-])c1)N1CCOCC1 | inactive
O=C(Nc1ncc2c(n1)-c1ccccc1OC2)c1ccc(Cl)cc1Cl | inconclusive: 14.1 µM [inhibitor, partial curve]
O=C(CCc1nc(-c2cccs2)no1)Nc1cnc2ccccc2c1 | inconclusive: 39.8 µM [inhibitor, single point]
COc1cc2c(cc1OC)C1CCC3=C([C@H](C)OC3=O)N1CC2 (some centres undefined) | inconclusive: 31.6 µM [inhibitor, partial curve]
COc1ncnc2c1NC1=C(S2)C(=NCCC(=O)O)CC(C)(C)C1 | inactive
Cc1ccc(NC(=O)CC2SC3=NCCCN3C2=O)c(C)c1 (centres undefined) | inactive

Compound | Potency
Cc1cccn2c(=O)c3cc(C(=O)NCC4CCCO4)c(=N)n(CCN4CCOCC4)c3nc12 (centres undefined) | inconclusive: 22.4 µM [inhibitor, partial curve]
CN(C)c1ccc(N/C=C/C(=O)C(F)(F)F)cc1 | inconclusive: 3.98 µM [inhibitor, partial curve]
COC(=O)c1cc2c(s1)-c1ccccc1CC2 | inconclusive: 31.6 µM [inhibitor, partial curve]
S=C1NC(C23CC4CC(CC(C4)C2)C3)=CC(c2ccc3c(c2)OCO3)N1 (centres undefined) | inconclusive: 28.2 µM [inhibitor, partial curve]
Clc1ccc(C2=NN(c3ccccc3)C(c3ccco3)C2)cc1 (centres undefined) | inconclusive: 7.94 µM [inhibitor, partial curve]
CCOC(=O)Nc1ccc2c(c1)N(C(=O)CCN1CCN(CCO)CC1)c1ccccc1CC2 | inconclusive: 39.8 µM [inhibitor, single point]
O=C(Cc1cccc2ccccc12)NCCOc1ccccc1F | inconclusive: 0.0158 µM [inhibitor, full curve]
CCC(c1nnnn1Cc1ccccc1)N(Cc1cc2cc(OC)ccc2[nH]c1=O)CC1CCCO1 (centres undefined) | inconclusive: 39.8 µM [inhibitor, single point]
Cc1cc(=O)c(C(=O)O)cn1Nc1ccc(Cl)cc1 | inactive
CC1Oc2ccccc2N(CC(=O)NCc2ccc3c(c2)OCO3)C1=O (centres undefined) | inconclusive: 35.5 µM [inhibitor, single point]
COc1ccc(C2=Nn3c(nnc3-c3cccnc3)SC2)cc1OC | inactive
O=c1c(/C=C(\O)c2ccc(F)cc2)nc2ccccc2n1-c1ccccc1 | active: 28.2 µM
O=C(COC(=O)c1cc(=O)[nH]c(=O)[nH]1)Nc1cccc(S(=O)(=O)N2CCCCC2)c1 | inactive
COc1ccc(C2Oc3ccccc3C3=C2C(c2cccs2)n2ncnc2N3)cc1 (centres undefined) | inconclusive: 35.5 µM [inhibitor, single point]
Cc1ccc(-n2cccn2)c(CN2CCCC(C(=O)c3ccc4c(c3)OCO4)C2)c1 (centres undefined) | inconclusive: 39.8 µM [inhibitor, single point]
Fc1cccc2sc(Nc3nc4c(F)cccc4s3)nc12 | inconclusive: 39.8 µM [inhibitor, single point]
Clc1ccc(-c2nc(Cc3ccccc3Cl)no2)cc1 | inactive
Cc1cc(C)cc(N(C(=O)CNC(=O)c2ccco2)C(C(=O)NC2CCCC2)c2cccnc2)c1 (centres undefined) | inactive
CCOc1cccc(C(=O)c2ccc(O)c(O)c2O)c1 | active: 10 µM
CCOC(=O)N1CCN(C(=O)/C=C/c2ccc3c(c2)OCO3)CC1 | inconclusive: 28.2 µM [inhibitor, partial curve]
CC1(C2(O)CC(c3ccccc3)ON2)CCCCC1 (centres undefined) | inactive
CCC(C(=O)Nc1nnc(-c2ccco2)s1)c1ccccc1 (centres undefined) | inconclusive: 35.5 µM [inhibitor, single point]
NC(=O)c1ccccc1N/C=C/C(=O)c1ccc(Cl)cc1 | inconclusive: 39.8 µM [inhibitor, single point]

Compound | Potency
COc1ccc(NC(=O)c2cccc(C(=O)Nc3ccc(OC)cc3)n2)cc1 | inconclusive: 35.5 µM [inhibitor, partial curve]
Cc1cc(C)c(NC(=O)CS(=O)CC(=O)Nc2cccnc2)c(C)c1 (centres undefined) | inactive
O=C(Nc1cccc(-c2nc3ncccc3o2)c1)c1ccco1 | inconclusive: 39.8 µM [inhibitor, single point]
c1ccc2c(c1)oc1c(Nc3ccc(CN4CCOCC4)cc3)ncnc12 | inconclusive: 31.6 µM [inhibitor, single point]
CC1=C(C(=O)OCc2ccccc2)C(C2CC2)NC(=O)N1CCCCCC(=O)O (centres undefined) | inconclusive: 39.8 µM [inhibitor, single point]
COc1ccc(CNC(=O)CN2C(=O)C3CCCN3c3ncc(Cl)cc32)cc1 (centres undefined) | inconclusive: 35.5 µM [inhibitor, single point]
CC(=O)Oc1ccc(N2C(=O)C3C(C2=O)C(C(=O)c2ccc(Cl)cc2)N2CCCC32)cc1 (centres undefined) | inconclusive: 8.91 µM [inhibitor, single point]
O=C(OC1CCN(c2ncc(C(F)(F)F)cc2Cl)CC1)c1ccc(Cl)cc1 | inconclusive: 39.8 µM [inhibitor, single point]
Cc1ccc(OCCN2C(=O)c3ccccc3C2=O)c([N+](=O)[O-])c1 | inactive
COC(=O)C1=C(N)c2ccccc2C1(C#N)c1ccccc1 (centres undefined) | inconclusive: 31.6 µM [inhibitor, partial curve]
CCCCC(CCC(=O)Nc1ccccc1C(=O)OCC)C(=O)O (centres undefined) | inconclusive: 35.5 µM [inhibitor, single point]
COc1ccc(-c2nn3c(C4CCCCC4)nnc3s2)cc1OC | inconclusive: 39.8 µM [inhibitor, single point]
O=C(CSc1nnc(-c2ccco2)n1Cc1ccccc1)c1ccc(F)cc1 | inactive
O=C(CN1CCC(n2nnc3cc(F)ccc32)CC1)NCc1ccco1 | inconclusive: 39.8 µM [inhibitor, single point]
Clc1ccccc1C1=Nn2c(nnc2-c2ccncc2)SC1 | inconclusive: 14.1 µM [inhibitor, partial curve]
CC(=O)c1ccc(N2CCN(C(=O)c3cc4c(-c5ccccc5F)nn(C)c4s3)CC2)cc1 | inconclusive: 28.2 µM [inhibitor, partial curve]
O=C(c1cc2nc(-c3ccccc3)cc(-c3ccccc3)n2n1)N1CCN(C(=O)c2ccco2)CC1 | inconclusive: 35.5 µM [inhibitor, partial curve]
CC(=O)Nc1ccc2nc(CN3CCN(Cc4ccc(F)cc4)C(CCO)C3)ccc2c1 (centres undefined) | inconclusive: 28.2 µM [inhibitor, single point]
CC1=C(C(=O)OCc2ccccc2)C(c2ccc(C(C)(C)C)cc2)NC(=O)N1CCCCCC(=O)O (centres undefined) | inconclusive: 35.5 µM [inhibitor, single point]
CSc1ccc(OC2CCCCC2NS(=O)(=O)c2ccc(Cl)cc2)cc1 (centres undefined) | inactive
COc1cccc(C=NCC(C)N=Cc2cccc(OC)c2O)c1O (centres undefined) | inconclusive: 4.47 µM [inhibitor, single point]
CC(=O)OC1CCC2(C)C3=C(CCC2C1(C)C)[C@]1(C)CCC(C(C)CCC=C(C)C)[C@]1(C)CC3 (some centres undefined) | inactive
Cc1ccc(S(=O)(=O)N2CCN(C3CCC(c4ccccc4)CC3)CC2)cc1 (centres undefined) | inactive
